86 compounds from publication PMC4336329 (PLoS ONE, 2015) can be followed below.

In all, about 310,000 compounds went through this assay and about 2,200 (0.71%) showed an effect of 50% or more. Effects have a minus sign here. The list shows a part of the results.

In the test the target is human ether-à-go-go-related gene (hERG) potassium channel (human, UniProt Q12809). As to the kind of experiment: primary screen, population patch clamp on CHO cells stably expressing hERG.
Chain of human ether-à-go-go-related gene (hERG) potassium channel (Q12809 whole entry, looked up): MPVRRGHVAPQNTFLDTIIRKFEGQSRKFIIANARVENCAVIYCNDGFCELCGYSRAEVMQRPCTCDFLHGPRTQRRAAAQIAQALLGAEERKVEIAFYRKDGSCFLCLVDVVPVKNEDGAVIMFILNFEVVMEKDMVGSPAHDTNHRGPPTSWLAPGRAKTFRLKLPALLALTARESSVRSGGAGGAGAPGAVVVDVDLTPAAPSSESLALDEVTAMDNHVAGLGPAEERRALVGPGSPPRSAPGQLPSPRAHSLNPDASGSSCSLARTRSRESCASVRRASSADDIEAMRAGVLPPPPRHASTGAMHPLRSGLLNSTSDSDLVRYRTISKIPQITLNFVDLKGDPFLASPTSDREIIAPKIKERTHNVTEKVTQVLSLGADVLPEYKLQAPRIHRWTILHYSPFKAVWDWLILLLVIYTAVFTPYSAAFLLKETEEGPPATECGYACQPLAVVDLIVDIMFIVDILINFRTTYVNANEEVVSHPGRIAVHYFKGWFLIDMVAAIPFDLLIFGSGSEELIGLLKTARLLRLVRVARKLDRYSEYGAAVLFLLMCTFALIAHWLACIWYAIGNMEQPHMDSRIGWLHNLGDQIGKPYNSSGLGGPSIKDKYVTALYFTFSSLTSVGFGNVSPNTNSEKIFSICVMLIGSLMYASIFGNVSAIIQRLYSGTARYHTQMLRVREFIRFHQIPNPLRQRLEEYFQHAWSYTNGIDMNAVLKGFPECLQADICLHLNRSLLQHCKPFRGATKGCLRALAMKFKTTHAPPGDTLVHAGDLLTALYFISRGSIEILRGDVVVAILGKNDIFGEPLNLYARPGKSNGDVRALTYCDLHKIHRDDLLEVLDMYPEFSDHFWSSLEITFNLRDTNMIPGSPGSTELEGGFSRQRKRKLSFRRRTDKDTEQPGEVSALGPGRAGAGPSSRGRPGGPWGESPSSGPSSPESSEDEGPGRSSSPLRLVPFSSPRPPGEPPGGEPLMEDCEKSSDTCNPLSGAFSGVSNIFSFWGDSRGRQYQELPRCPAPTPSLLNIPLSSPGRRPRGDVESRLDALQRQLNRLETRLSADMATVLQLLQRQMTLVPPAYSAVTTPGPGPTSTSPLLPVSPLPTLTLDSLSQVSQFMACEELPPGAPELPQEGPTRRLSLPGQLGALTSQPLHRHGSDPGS
In the case of `CC(=O)Nc1ccc(S(=O)(=O)Nc2nnc(C(C)(C)C)s2)cc1`, the “hERG current change (%, negative = inhibition) at 1uM” value came out at 12.3%. As to `CCN(CC)Cc1c(O)ccc2c(=O)c(Oc3ccccc3OC)c(C)oc12`, the “hERG current change (%, negative = inhibition) at 1uM” value was found to be 6.55%. As for `CCC(C(=O)NC1CCCC1)N(C(=O)Cn1nnc(-c2ccc(C)cc2)n1)C1CCCC1` (centres unmarked), the “hERG current change (%, negative = inhibition) at 1uM” value is listed as 9.94%. As for `CC(C)CNC(=O)c1cccc(C(=O)NCC(C)C)c1`, the figure is 0.686%. As for `CC(C)Cn1c(N2CCN(C(=O)/C=C/c3ccccc3)CC2)nc2ccccc21`, the figure is -32.9%; as for `CC(C(=O)NCc1ccccc1Cl)N1C(=O)c2ccccc2C1=O` (centres unmarked), 8.94%; as for `CCOC(=O)N1CCN(S(=O)(=O)N2CCCC(C(=O)NC(C)c3ccccc3)C2)CC1` (centres unmarked), 17.6%. As for `CCOc1cc(/C=C(\C#N)C(N)=O)ccc1OCc1c(C)no[n+]1[O-]`, the “hERG current change (%, negative = inhibition) at 1uM” value amounted to 14.1%. As for `CCCCCCNC(=O)c1cn(CC)c2cc(N3CCN(C)CC3)c(F)cc2c1=O`, the “hERG current change (%, negative = inhibition) at 1uM” value worked out at 13.3%.

Regarding `CCCOc1ccc(C(=O)Nc2ccc(N(C)C)cc2)cc1`, the “hERG current change (%, negative = inhibition) at 1uM” value is 9.76%. For the compound `O=C(c1ccc(NS(=O)(=O)c2ccc(F)cc2)cc1)N1CCN(c2ccccc2O)CC1`, the “hERG current change (%, negative = inhibition) at 1uM” value was found to be 10.8%.

As for `CCN(CC)C(=O)c1cn(-c2cccc(OC)c2)c(=O)c2ccccc12`, the “hERG current change (%, negative = inhibition) at 1uM” value is 12.5%. As for `C=CCn1c(=O)c(C(C)=O)cn(N(C)c2ncc(C(F)(F)F)cc2Cl)c1=O`, the figure is 10.5%; as for `COc1ccc(-c2nc(-c3ccncc3)no2)cc1OC`, -1.49%.

In the case of `O=C1C(Nc2ccccc2)=C(NS(=O)(=O)c2ccccc2)C(=O)c2ccccc21`, the “hERG current change (%, negative = inhibition) at 1uM” value turned out to be 4.84%.

With `C/C(=N\NC(=O)c1cccc(N/N=C(\C)c2cc(O)ccc2O)c1)c1cc(O)ccc1O`, the “hERG current change (%, negative = inhibition) at 1uM” value came to 3.67%.

As to `Cc1cccc(OC(C)C(=O)OCC(=O)Nc2sccc2C(N)=O)c1` (centres unmarked), the “hERG current change (%, negative = inhibition) at 1uM” value is 1.82%. With `CCNc1nc(NCC)nc(NS(=O)(=O)c2ccc(N)cc2)n1`, the “hERG current change (%, negative = inhibition) at 1uM” value is recorded as 18.6%. The result for `COCc1nnc(NC(=O)C(C)C)s1` reads 14.8%; that for `Cn1cc(C(=O)NC2CCCCCCC2)c(=O)c2cc(S(=O)(=O)N3CCCC3)ccc21`, 19.6%; that for `COc1cc(NC(=O)c2cc3c(C)nc4ccccc4c3o2)cc(OC)c1OC`, 7.87%.

On to `Cc1ccc(S(=O)(=O)Nc2nc(C)c(NC(=O)OCCCl)s2)cc1`, for which the “hERG current change (%, negative = inhibition) at 1uM” value was -2.38%. In the case of `O=C(Nc1ncc([N+](=O)[O-])s1)c1ccco1`, the “hERG current change (%, negative = inhibition) at 1uM” value was 17%. Take `Cc1c(N=C2SCC(=O)N2c2c(C)n(C)n(-c3ccccc3)c2=O)c(=O)n(-c2ccccc2)n1C`: the “hERG current change (%, negative = inhibition) at 1uM” value is given as 3.49%. With `O=C(Nc1ncc2c(n1)CC(c1ccco1)CC2=O)c1ccc(Cl)cc1` (centres unmarked), the “hERG current change (%, negative = inhibition) at 1uM” value is given as 0.855%. The result for `CCOC(=O)c1ccccc1NC(=O)c1n[nH]c(=O)c2ccccc12` reads 3.01%; that for `CN(CC(=O)Nc1cccc(F)c1)CC(=O)Nc1ccc(Cl)cc1[N+](=O)[O-]`, 3.8%; that for `CN(CC(=O)Nc1ccc(Cl)cc1)CC(=O)Nc1cc(Cl)ccc1C#N`, 3.23%. As for `CCOC(=O)c1c(NC(=O)COc2cccc3c2CCN(CC)C3=O)sc2c1CCC2`, the figure is 10.4%; as for `CC(OC(=O)c1ccc(NS(=O)(=O)c2ccc3[nH]c(=O)[nH]c3c2)cc1)C(=O)Nc1cccc(Cl)c1Cl` (centres unmarked), 4.72%. As for `O=C(CSc1ccc(Cl)cc1)NCc1ccncc1`, the figure is -2.62%; as for `CC1(O)CC(c2ccc(Cl)cc2)=NN1C(=O)c1ccc([N+](=O)[O-])cc1` (centres unmarked), 17.6%; as for `COc1ccc(CNC(=O)C(c2ccc(C)o2)N(C(=O)c2csnn2)c2ccc(C(C)C)cc2)cc1` (centres unmarked), -0.505%. For the compound `CN1CCN(c2ccc([N+](=O)[O-])c(Sc3nncn3C)c2)CC1`, the “hERG current change (%, negative = inhibition) at 1uM” value was -4.09%. As for `Cc1nc2sccc2c(=O)n1-c1ccccc1Cl`, the figure is 16.2%; as for `Cc1n[nH]c(=O)nc1NCc1ccccc1Cl`, 6.98%.

For `CCCNC(=O)CN1C(=O)c2ccccc2Sc2ncccc21`, the “hERG current change (%, negative = inhibition) at 1uM” value is reported as 5.72%. As for `COc1ccc(NS(=O)(=O)c2ccc(S(=O)(=O)N3CCOCC3)cc2)cc1`, the figure is -6.19%; as for `CN(CC(=O)OCC(=O)NC(=O)c1cccn1C)S(=O)(=O)c1ccc(Cl)cc1`, 13.4%; as for `CCOc1ccc(C(=O)O/N=C(\N)c2ccccn2)cc1`, 17.6%.

Take `CC(CC(=O)OCC(=O)Nc1ccc2[nH]c(=O)[nH]c2c1)c1ccccc1` (centres unmarked): the “hERG current change (%, negative = inhibition) at 1uM” value was 5.66%. As for `Cc1ccc2nc(-c3cccc(S(=O)(=O)N4CC(C)OC(C)C4)c3)cn2c1` (centres unmarked), the figure is 8.62%; as for `COCCNC(=O)CCSc1nc(-c2ccc(OC)cc2)cc(C(F)(F)F)n1`, 12%. As for `Cc1cc(C)cc(NS(=O)(=O)Cc2ccccc2)c1`, the figure is 11.9%; as for `Cl.O=C(c1ccco1)N1CCN(CCOc2ccc(F)cc2)CC1`, -0.809%; as for `Cc1ccc(C(=O)N/N=C/c2ccc([N+](=O)[O-])s2)cc1`, 9.57%. The result for `CC(=O)c1c(C)[nH]c(C(=O)CSc2nnc(-c3ccc(Cl)cc3)n2CC2CCCO2)c1C` (centres unmarked) reads 0.922%; that for `O=S(=O)(c1ccc(Cl)cc1)c1ccccn1`, 8.68%; that for `Cc1cc(C)c2nc(N(CCN(C)C)C(=O)c3ccc(S(=O)(=O)N(C)CC4CCCO4)cc3)sc2c1.Cl` (centres unmarked), -1.93%. For the compound `Cc1ccc(S(=O)(=O)/N=C(\N)Nc2nc(C)c3ccc(C)cc3n2)cc1`, the “hERG current change (%, negative = inhibition) at 1uM” value is -2.7%. For `Cc1ccc(N=C2S/C(=C/c3cccc(OCC(=O)O)c3)C(=O)N2C)cc1C`, the “hERG current change (%, negative = inhibition) at 1uM” value was determined as 8.67%. Regarding `CCN1CCN(C(=O)Cc2ccc(C)cc2)CC1`, the “hERG current change (%, negative = inhibition) at 1uM” value is recorded as 13.9%. Take `CC(C)CN(C(=O)CCC(=O)OC(C)C(=O)Nc1cccc(C#N)c1)c1c(N)n(CC(C)C)c(=O)[nH]c1=O` (centres unmarked): the “hERG current change (%, negative = inhibition) at 1uM” value was determined as 13.1%. As to `CCCc1[nH]n(-c2nc3ccccc3s2)c(=O)c1C=NCC1CCCO1` (centres unmarked), the “hERG current change (%, negative = inhibition) at 1uM” value is on record as -7.95%. On to `C(=N\NC1=Nc2cccc3cccc1c23)/c1cccnc1`, for which the “hERG current change (%, negative = inhibition) at 1uM” value was determined as 7.24%. As for `Cc1ccc(CNC(=O)C2CCC(=O)N2C2CCCCC2)cc1` (centres unmarked), the figure is 10.2%; as for `CN(CCCN1CCOCC1)Cc1cn(C)nc1-c1ccccc1F`, 3.45%; as for `CC(C)c1cc(C(=O)N2CCCC(N3CCN(c4ccccc4F)CC3)C2)nc(N)n1` (centres unmarked), 10.1%. As for `CN(CC(=O)NCC(=O)Nc1ccc(F)cc1)C1CCS(=O)(=O)C1` (centres unmarked), the figure is 10.7%; as for `CCC(=NCC1CCCO1)c1c(O)n(-c2ccc(Cl)cc2)c(=O)[nH]c1=O` (centres unmarked), -3.6%.

Turning to `Cc1cc(C)c2cc(CN(CCO)C(=O)NC3CCCCC3)c(=O)[nH]c2c1`, the “hERG current change (%, negative = inhibition) at 1uM” value worked out at 6.77%. As to `CCn1c(SCC(=O)Nc2c(C)n(C)n(-c3ccccc3)c2=O)nnc1-c1cccc(C)c1`, the “hERG current change (%, negative = inhibition) at 1uM” value was found to be 25.4%. In the case of `O=C(CNC(=O)c1[nH]cnc1C(=O)NC(c1ccccc1)c1ccccc1)OCc1ccccc1`, the “hERG current change (%, negative = inhibition) at 1uM” value is listed as 9.19%. As for `Cc1ccc(NC(=O)c2cc(C(=O)Nc3ccc(C)cc3)n(C)n2)cc1`, the figure is 12.5%; as for `O=C(N/N=C/c1ccc([N+](=O)[O-])o1)C1CCCC1`, 13.1%; as for `Cn1nc(C(C)(C)C)cc1C(=O)NNC(=O)c1ccc(C(F)(F)F)cc1`, 15.3%. As for `CCCCNC(=O)CSc1nc2ccc(N3CCOCC3)cc2c(=O)n1CCc1ccccc1`, the figure is -5.29%; as for `CC(=O)C1=C(C)NC(=O)NC1c1cc(Br)ccc1OCC(N)=O` (centres unmarked), 1.31%; as for `CN(c1ccccc1)S(=O)(=O)c1cccc2ccccc12`, 17.8%.

Turning to `CC1=C(C(=O)OC(C)C)C(c2c(O)ccc3ccccc23)NC(=O)N1` (centres unmarked), the “hERG current change (%, negative = inhibition) at 1uM” value is listed as 15.5%.

As for `C=CCN(c1ccccc1)S(=O)(=O)c1cccc(C(=O)N2CC(C)CC(C)C2)c1` (centres unmarked), the “hERG current change (%, negative = inhibition) at 1uM” value is recorded as 8.25%.

For `COc1cccc(C(=O)NC(C)C(c2cccs2)N2CCOCC2)c1` (centres unmarked), the “hERG current change (%, negative = inhibition) at 1uM” value came to 0.787%. Turning to `O=C(CC(=O)Nc1cccc(Cl)c1Cl)Nc1cccc(Cl)c1Cl`, the “hERG current change (%, negative = inhibition) at 1uM” value was found to be 15.1%. With `CCCc1nnc(SCC(=O)N2CCOCC2)n1CCCOC`, the “hERG current change (%, negative = inhibition) at 1uM” value is reported as 13.8%.

Turning to `CCOC(=O)c1c(NC(=O)COC(=O)c2ccccc2NC)sc(C(=O)N(C)C)c1C`, the “hERG current change (%, negative = inhibition) at 1uM” value turned out to be 6.12%. `CCc1c(C)nc2cc(-c3ccc(Cl)cc3)[nH]n2c1=O`: the “hERG current change (%, negative = inhibition) at 1uM” value is on record as 7.07%. As for `Cc1ccc2cc(NC(=O)Cc3ccccc3)ccc2n1`, the figure is 23.7%. As for `Cc1ccc(C(C)NC(=S)NCc2ccc(F)cc2)c(C)c1` (centres unmarked), the “hERG current change (%, negative = inhibition) at 1uM” value is 11.4%. As for `CCOC(=O)C1CCN(C(=O)COC(=O)CN(C)S(=O)(=O)c2ccc(NC(C)=O)cc2)CC1`, the figure is 13%.

In the case of `COc1ccc(NC(=O)COC(=O)c2ncc(Cl)c(Cl)c2Cl)c(OC)c1`, the “hERG current change (%, negative = inhibition) at 1uM” value came out at 12.3%. As for `CCc1ccc(-c2cc(C)no2)cc1S(=O)(=O)Nc1ccc(Cl)cn1`, the figure is 3.66%; as for `CC(C)N(C(=O)CSc1nnc(NC(=O)c2ccco2)s1)C(C)C`, 11.8%; as for `O=C(NCc1ccco1)c1ccc2c(c1)C(=O)c1ccccc1-2`, 4.66%.

In the case of `COc1ccc(NC(=O)c2c(C)noc2-c2snnc2C)cc1`, the “hERG current change (%, negative = inhibition) at 1uM” value amounted to 16.2%.

For `CSc1ccccc1OCc1cc(C(=O)NC2CCOC2)no1` (centres unmarked), the “hERG current change (%, negative = inhibition) at 1uM” value turned out to be 12.9%. The result for `C/C(CCc1ccccc1)=N\NC(=O)c1ccccc1` reads -7.58%.
